Source: paper PMC2993745 (Molecular Biology of the Cell, 2010)

Target: recombinant PLEKHM1 (FL) (human, UniProt Q9Y4G2)
Assay: pull-down

B1: GST-Rab7 (natural protein)
chain: not shown
  binding result: binds
